About 5,800 (2.1%) of roughly 270,000 compounds were called active. The inconclusive results got no clear call from the source; some entries with a clear call stand among them for comparison. Calls follow the shape of the dose curve; as a rule, active = well fitted inhibition curve with a large enough effect; inconclusive = small, poorly fitted or top-dose-only effect; inactive = flat fitted curve, though single readings scatter. Potencies of inconclusive entries are doubtful fits and often do not repeat.
biological target: Microtubule-associated protein tau (Homo sapiens) (UniProt P10636); assay: qHTS for Inhibitors of Tau Fibril Formation, Thioflavin T Binding; conditions: recombinant tau K18 P301L (four-repeat tau fragment), heparin-induced fibrillization, ThT fluorescence; series mostly up to 57.4 µM; activity, negative = inhibition: at the top concentration; also: nearly all actives have a fitted effect of over 55% in size
Procedure, shortened: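 Aggregation was driven by heparin (20 uM final) acting on recombinant tau […] bearing P301L in 100 mM sodium acetate pH 7; fibrils were detected with Thioflavin T.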
% is scaled to controls: 0 for no effect and ±100 for the full control effect; potency is read from the fitted curve at half-maximal effect; tags tell the direction and shape of the fitted curve.

UniProt P10636, sequence (P10636 whole entry, looked up, the tested form may be a part): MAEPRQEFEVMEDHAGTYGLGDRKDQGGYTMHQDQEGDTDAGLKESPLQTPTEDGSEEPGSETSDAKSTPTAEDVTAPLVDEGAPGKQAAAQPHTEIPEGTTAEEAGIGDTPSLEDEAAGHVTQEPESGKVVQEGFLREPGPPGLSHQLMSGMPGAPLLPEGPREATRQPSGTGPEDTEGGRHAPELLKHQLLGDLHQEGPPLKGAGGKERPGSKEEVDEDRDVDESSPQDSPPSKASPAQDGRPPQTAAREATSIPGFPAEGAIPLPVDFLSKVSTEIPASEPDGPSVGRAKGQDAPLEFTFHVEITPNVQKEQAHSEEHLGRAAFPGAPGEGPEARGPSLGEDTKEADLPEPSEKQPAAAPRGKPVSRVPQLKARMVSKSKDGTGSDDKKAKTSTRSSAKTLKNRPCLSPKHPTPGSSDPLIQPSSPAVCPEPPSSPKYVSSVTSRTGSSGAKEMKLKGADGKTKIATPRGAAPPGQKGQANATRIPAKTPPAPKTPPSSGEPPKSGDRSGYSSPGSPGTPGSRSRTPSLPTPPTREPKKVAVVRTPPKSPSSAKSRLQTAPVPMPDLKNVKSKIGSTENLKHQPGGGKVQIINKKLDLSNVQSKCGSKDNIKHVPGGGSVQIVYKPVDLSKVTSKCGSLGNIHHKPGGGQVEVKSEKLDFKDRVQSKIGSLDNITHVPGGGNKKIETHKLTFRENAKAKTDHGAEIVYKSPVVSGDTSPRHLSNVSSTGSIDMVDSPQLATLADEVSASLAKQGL

**Q.** For `CCOC(=O)c1c(NS(C)(=O)=O)sc2c1CCC(C)C2` (stereo not given), which Potency is on record?
**A.** inconclusive: 15.8 µM [inhibitor, partial curve, poor fit]

**Q.** How did the Potency turn out when `c1ccc2c(-c3nn4nnnc4c4ccccc34)cccc2c1` was run?
**A.** inconclusive: 17.8 µM [inhibitor, partial curve, poor fit]

**Q.** Which “activity, negative = inhibition” value does the source give for `O=C(CN1CCN(c2ccccc2)CC1)Nc1ccccc1Cl` here?
**A.** inactive: -14.1%

**Q.** For `CNC(=O)Oc1ccc2c(c1)[C@@]1(C)CCN(C)[C@@H]1N2C`, which “activity, negative = inhibition” value is on record?
**A.** inactive: -13.5%

**Q.** How did the “activity, negative = inhibition” value turn out when `CC(C)NC(=O)CSc1nc2ccccc2n1-c1ccccc1` was run?
**A.** inactive: -11.6%

**Q.** How did the Potency turn out when `COc1cc(C(=O)OCc2cc(=O)n3nc(C(C)C)sc3n2)cc(OC)c1OC` was run?
**A.** inconclusive: 12.6 µM [inhibitor, partial curve]

**Q.** `COc1ccc(NC(=O)CN2C(=O)c3ccccc3Sc3ccc(C(=O)N4CCOCC4)cc32)c(OC)c1` was tested. Which Potency did it give?
**A.** inactive

**Q.** Which Potency does the source give for `O=C(CSCc1nc2ccccc2[nH]1)Nc1ccc2ccccc2c1` here?
**A.** active: 22.4 µM

**Q.** Which Potency does the source give for `CCOC(=O)C1CCN(c2c(C(=O)c3ccc(C)cc3)cnc3ccc(F)cc23)CC1` here?
**A.** inconclusive: 15.8 µM [inhibitor, single point]

**Q.** `CC1CCc2nc(NC(=O)C3CCCO3)sc2C1` (stereo not given) was tested. Which Potency did it give?
**A.** inconclusive: 17.8 µM [inhibitor, single point]

**Q.** With `Cc1ccc2c(c1C)NC(C(=O)O)C1CC=CC21` (stereo not given) as the compound, how does the Potency read?
**A.** active: 11.2 µM

**Q.** `COc1ccc(-c2cc(C(=O)c3c(N)n(C)c(=O)n(C)c3=O)c3ccccc3n2)cc1OC` was tested. Which Potency did it give?
**A.** inconclusive: 44.7 µM [inhibitor, single point]

**Q.** `CCCOc1ccc(NC(=O)CC2C(=O)N(c3ccc(C)cc3)C(=O)N2Cc2cccc(OC)c2)cc1` (stereo not given) was tested. Which Potency did it give?
**A.** inconclusive: 12.6 µM [inhibitor, partial curve]

**Q.** How did the “activity, negative = inhibition” value turn out when `COC(=O)CC1C(=O)NCCN1C(=S)Nc1ccc(F)cc1` (stereo not given) was run?
**A.** inactive: -10.5%

**Q.** For `CCN(CC)c1ccc(-c2n[nH]c(=S)n2-c2ccccc2)cc1`, which Potency is on record?
**A.** inconclusive: 20 µM [inhibitor, single point]

**Q.** `CSc1ccc(CC2C(=O)Nc3ccccc32)cc1` (stereo not given) was tested. Which Potency did it give?
**A.** inconclusive: 28.2 µM [inhibitor, single point]

**Q.** Which “activity, negative = inhibition” value does the source give for `CCC(=O)N1CCN(c2ccc(Cl)cc2NC(=O)Cc2ccc(Cl)cc2)CC1` here?
**A.** inactive: -13.3%

**Q.** Which Potency does the source give for `O=[N+]([O-])c1cccc(-c2nnc(-c3ccccc3)o2)c1` here?
**A.** inconclusive: 1.26 µM [inhibitor, full curve, poor fit]

**Q.** How did the “activity, negative = inhibition” value turn out when `COc1ccccc1NS(=O)(=O)c1cc(NC(=O)C2CCCC2)ccc1N1CCOCC1` was run?
**A.** inactive: -16.8%

**Q.** Which Potency does the source give for `COCC1=C2c3ccccc3[C@H](C[N+](=O)[O-])C(C(=O)OC)(C(=O)OC)CC2C2C(=O)N(c3ccccc3)C(=O)C2C1` (stereo not given in full) here?
**A.** inactive

**Q.** With `NC(=O)c1ccc[n+](CC(=O)c2ccc(Br)cc2)c1` as the compound, how does the Potency read?
**A.** inconclusive: 3.98 µM [inhibitor, partial curve]

**Q.** How did the Potency turn out when `CCOc1ccc(-c2nc(SCC(=O)NCCCOC)c(-c3ccccc3)[nH]2)cc1` was run?
**A.** inconclusive: 25.1 µM [inhibitor, partial curve, poor fit]

**Q.** For `COc1ccccc1CNC(=O)CSc1ncc2c(n1)-c1cc(Cl)ccc1N(Cc1ccccc1)S2(=O)=O`, which “activity, negative = inhibition” value is on record?
**A.** inactive: 4.51%

**Q.** For `CCn1ncc(/C=N/N=C2\CCC3C4CCc5cc(O)ccc5C4CCC23C)c1C` (stereo not given), which Potency is on record?
**A.** inconclusive: 2.51 µM [inhibitor, full curve]

**Q.** For `COc1cc(NC(=O)Nc2cccc(C(C)=O)c2)cc(OC)c1OC`, which “activity, negative = inhibition” value is on record?
**A.** inactive: -18.9%

**Q.** `Cc1cccc(-n2c(C)nc3cc(C(=O)NC4CCCCCC4)ccc32)c1` was tested. Which “activity, negative = inhibition” value did it give?
**A.** inactive: -15.3%

**Q.** How did the Potency turn out when `Cc1onc(-c2c(Cl)cccc2Cl)c1-c1nc2cc(Cl)ccc2c(=O)o1` was run?
**A.** inconclusive: 20 µM [inhibitor, partial curve, poor fit]

**Q.** How did the “activity, negative = inhibition” value turn out when `CC1=Nn2c(nnc2-c2ccccc2Cl)SC1` was run?
**A.** inactive: -2.35%

**Q.** Which Potency does the source give for `COC(=O)c1c(NC(=O)c2cnccn2)sc2c1CCC2` here?
**A.** inconclusive: 3.55 µM [inhibitor, full curve, poor fit]

**Q.** For `N#CC1=C(N)C(C#N)(C#N)C(c2cccnc2)C2COCC=C12` (stereo not given), which Potency is on record?
**A.** inconclusive: 35.5 µM [inhibitor, single point]

**Q.** How did the “activity, negative = inhibition” value turn out when `COc1ccc(NC(=O)Nc2c[nH]c(=O)[nH]c2=O)c(OC)c1` was run?
**A.** inactive: -7.07%

**Q.** Which Potency does the source give for `Cc1cc(N2CCN(C)CC2)nc2ccc(NC(=S)NCCN3CCc4ccccc4C3)cc12` here?
**A.** inconclusive: 14.1 µM [inhibitor, partial curve]

**Q.** `COc1ccc(NC2=Nc3cccc4cccc2c34)cc1` was tested. Which Potency did it give?
**A.** active: 12.6 µM

**Q.** How did the Potency turn out when `COc1ccc(NC(=O)Cn2c(-c3ccccc3)cc(C(C)=O)c2C)c(OC)c1` was run?
**A.** inconclusive: 44.7 µM [inhibitor, single point]

**Q.** `COc1cc(OC)cc(C(=O)NCC(=O)OCc2nc3ccccc3s2)c1` was tested. Which Potency did it give?
**A.** inconclusive: 35.5 µM [inhibitor, single point]

**Q.** With `N#Cc1c(NC(=O)c2ccc(-c3ccccc3[N+](=O)[O-])o2)sc2c1CCCC2` as the compound, how does the Potency read?
**A.** inconclusive: 2.82 µM [inhibitor, full curve]

**Q.** For `Cc1ccc(-c2cc(C(=O)NC3=NCCS3)c3ccccc3n2)cc1C`, which Potency is on record?
**A.** inconclusive: 12.6 µM [inhibitor, partial curve]

**Q.** Which “activity, negative = inhibition” value does the source give for `CC(C(=O)NC1CCCC1)N(C(=O)c1ccc(-c2ccccc2)[nH]1)c1ccccc1F` (stereo not given) here?
**A.** inactive: -16.6%

**Q.** With `CCCCn1nc2cc(C(=O)N(CC)c3ccc(OC)cc3)ccc2c1OCC` as the compound, how does the Potency read?
**A.** inconclusive: 10 µM [inhibitor, partial curve]

**Q.** How did the Potency turn out when `CCN(CC)c1ccc(N)cc1S(=O)(=O)Nc1ccccc1OC` was run?
**A.** active: 25.1 µM

**Q.** Which Potency does the source give for `CC(=O)Nc1ccc(-n2c(CCC(=O)O)ccc2-c2ccc(C)cc2)cc1` here?
**A.** inconclusive: 44.7 µM [inhibitor, single point]

**Q.** `C[Si](C)(C/C=C/CC[C@H](O)C1=CCCCC1=O)c1ccccc1` was tested. Which “activity, negative = inhibition” value did it give?
**A.** inactive: 0.774%

**Q.** `CC(=O)Nc1ccc(S(=O)(=O)Nc2nc3ccc([N+](=O)[O-])cc3s2)cc1` was tested. Which Potency did it give?
**A.** inconclusive: 20 µM [inhibitor, partial curve, poor fit]

**Q.** With `O=c1/c(=C\c2cccc(O)c2)sc2nc(-c3ccccc3)c(-c3ccccc3)n12` as the compound, how does the Potency read?
**A.** active: 11.2 µM

**Q.** With `Cc1cc(C)cc(OCC(=O)Nc2ccc(Cl)c(-c3nc4ncccc4o3)c2)c1` as the compound, how does the Potency read?
**A.** inconclusive: 7.94 µM [inhibitor, single point]

**Q.** For `CCOc1ccc2[nH]c3c(N4CCN(c5ccccn5)CC4)ncnc3c2c1`, which Potency is on record?
**A.** inconclusive: 7.08 µM [inhibitor, partial curve]

**Q.** Which Potency does the source give for `COC(=O)c1ccccc1NC(=O)CSc1nc(O)c(-c2ccccc2)c(=O)[nH]1` here?
**A.** inconclusive: 39.8 µM [inhibitor, single point]

**Q.** For `COc1cccc(C2C(C(=O)Nc3ccccc3)=C(C)Nc3nnnn32)c1OC` (stereo not given), which Potency is on record?
**A.** inconclusive: 5.01 µM [inhibitor, single point]

**Q.** How did the Potency turn out when `COc1cc(/C=N/NC(=O)c2ccoc2C)ccc1O` was run?
**A.** inconclusive: 22.4 µM [inhibitor, partial curve]

**Q.** With `COc1cc2c(-c3ccc(C)cc3)nc3c(c(C)nn3-c3ccccc3)c2cc1OC` as the compound, how does the “activity, negative = inhibition” value read?
**A.** inactive: -1.11%

**Q.** Which Potency does the source give for `COc1ccc(-c2nnc(SCC(=O)Nc3ccc(C)cc3)n2C)cc1` here?
**A.** inconclusive: 25.1 µM [inhibitor, partial curve, poor fit]

**Q.** Which “activity, negative = inhibition” value does the source give for `CC(C)Oc1ccc(CNC(=O)c2cnc3sc(N4CCCCC4)nn3c2=O)cc1` here?
**A.** inactive: 4.5%

**Q.** `CCOC(=O)/C(=N/Nc1ccccc1)c1csc(Nc2ccccc2)n1` was tested. Which Potency did it give?
**A.** inconclusive: 14.1 µM [inhibitor, partial curve]

**Q.** With `CCCCOc1ccc(/C=C2/Sc3ccccc3C2=O)cc1` as the compound, how does the Potency read?
**A.** active: 3.55 µM

**Q.** How did the Potency turn out when `Cc1ccc2nc(NS(=O)(=O)c3ccc(Cl)cc3)c(Nc3ccc(C(=O)O)cc3)nc2c1` was run?
**A.** inconclusive: 11.2 µM [inhibitor, partial curve]

**Q.** Which Potency does the source give for `NNc1nc2ccccc2nc1C(F)(F)F` here?
**A.** inconclusive: 35.5 µM [inhibitor, single point]

**Q.** With `Cc1ccc(S(=O)(=O)N2CCN(C(=O)CSc3nnc(C)c(=O)[nH]3)CC2)cc1` as the compound, how does the “activity, negative = inhibition” value read?
**A.** inactive: 1.18%

**Q.** Which Potency does the source give for `Cc1nc2c(C(=O)NCCc3ccc(Cl)cc3)c[nH]n2c(=O)c1Cc1ccccc1F` here?
**A.** inconclusive: 28.2 µM [inhibitor, partial curve]

**Q.** Which “activity, negative = inhibition” value does the source give for `CCOc1cc(N2CCOCC2)c(OCC)cc1NC(=O)[C@H](C)N1C(=O)C2CC=CCC2C1=O` (stereo not given in full) here?
**A.** inactive: -1.48%

**Q.** How did the “activity, negative = inhibition” value turn out when `COCCCNC(=S)NCCNc1nc2cc(C)cc(C)c2cc1C#N` was run?
**A.** inactive: -1.06%

**Q.** With `CC[n+]1c(/C=C2\C=C(C)CC(C)(C)C2)sc2ccccc21` as the compound, how does the Potency read?
**A.** inconclusive: 28.2 µM [inhibitor, partial curve]

**Q.** How did the “activity, negative = inhibition” value turn out when `CC1(C)Cn2c(nnc2-c2cccc(O)c2)S1` was run?
**A.** inactive: 2.13%

**Q.** How did the Potency turn out when `O=C(c1ccccc1)c1cnc(-c2ccccc2)s1` was run?
**A.** inconclusive: 10 µM [inhibitor, partial curve, poor fit]

**Q.** With `COc1ccc(S(=O)(=O)NCc2ccc3c(c2)CCN3C(=O)c2ccc(C)cc2)cc1Cl` as the compound, how does the “activity, negative = inhibition” value read?
**A.** inactive: 2.34%

**Q.** `Cn1cc(-c2cc3n(n2)CCC(=O)N3CCCC(=O)Nc2ccc(F)cc2F)c2ccccc21` was tested. Which Potency did it give?
**A.** inconclusive: 14.1 µM [inhibitor, partial curve]

**Q.** Which Potency does the source give for `CC1=Nc2cccc3cccc(c23)N1` here?
**A.** active: 22.4 µM

**Q.** How did the Potency turn out when `Cc1cc(C)cc(-n2ccnc2SCC(=O)Nc2ccc3c(c2)OCO3)c1` was run?
**A.** inconclusive: 7.94 µM [inhibitor, full curve, poor fit]

**Q.** `Nc1nc(NCc2ccco2)nc(N2CCCCCC2)c1[N+](=O)[O-]` was tested. Which Potency did it give?
**A.** inconclusive: 44.7 µM [inhibitor, single point]

**Q.** For `COc1ccc(-c2csc(N3CCN(C(=O)c4ccco4)CC3)n2)cc1`, which Potency is on record?
**A.** inconclusive: 20 µM [inhibitor, partial curve]

**Q.** For `CCc1ccc(C(=O)Cn2cnc3cc([N+](=O)[O-])ccc3c2=O)cc1`, which Potency is on record?
**A.** inconclusive: 5.01 µM [inhibitor, full curve, poor fit]

From PubChem BioAssay AID1460 (National Center for Advancing Translational Sciences (NCATS), 2008)
